According to the RNAGym collection of RNA variant scans (doi:10.7554/elife.90254):
Read counts are not given, so values of variants with three or more changes are uncertain.

B1: LINE1-mini (parent)
chain: GGCAGAGCUCAACACAGCGUGGCAAAGUGGCUGUGGCUAGACUGCC

Variants of: B1
Assay: self-cleavage, relative activity (ratio to wild type); higher = more cleavage; in vitro, sequencing; the parent is a self-cleaving ribozyme

| Variant | self-cleavage |
| --- | --- |
| A26U G33A U34C U43A | 0.12 |
| G27C G29U C37G | 0.02 |
| G27A U28C U43G | 0.03 |
| G27C G29C G35C C37G G40U | 0.03 |
| A26U U38A U43C | 0.06 |
| G27C U28A G29C C45A | 0.8 |
| G27C G33U G40A U43C C45U | 0.09 |
| A26U G33A U38A G40U | 0.11 |
| A26U G30A G40A | 0.05 |
| G27C C31U G40U A41U | 0.01 |
| A26G G36C A39U | 0.07 |
| A26G G33U A41U C42A | 0.05 |
| A26U U28C A39U | 0.85 |
| G27C G35C U38G | 0.05 |
| G27C G35C U38C | 0.01 |
| G27A G30C G36A G44A | 0.61 |
| A26U G27A C31G | 0.07 |
| A26G U34G C42A | 0.01 |
| G27A U38A C45A | 0.1 |
| G27C G36A U38A G44A C46G | 0.04 |
| A26U G27A G29C | 0.08 |
| G27C U32C G40A | 0.03 |
| G27C U28G G40C | 0.07 |
| G27C C31U C45U | 0.05 |

| Variant | self-cleavage |
| --- | --- |
| G27U C31U G33C G40U | 0.11 |
| A26U G27U G36U | 0.1 |
| G27A G30A A39C G44C | 0.07 |
| A26U U28C U32A G35U C46A | 0.04 |
| A26U U38A A41U | 0.09 |
| A26U G36U C37A | 0.07 |
| G27A A41C C42U | 0.06 |
| G27C C37U U38C | 0.01 |
| G27A G33C C37U | 0.09 |
| A26U C42G G44A | 0.07 |
| A26U G27U A41U C45G | 0.13 |
| G27A U28C G29C G44U | 0.05 |
| G27A G29U G36U | 0.01 |
| G27A C31A C46A | 0.46 |
| A26U G27U C42A U43G | 0.03 |
| G27A C31A G40U | 0.08 |
| G27A G36U G44U C46U | 0.01 |
| G27A U32A C37G | 0.07 |
| G27A A41C C45U | 0.06 |
| G27A G35U C37U | 0.04 |
| G27A C37U U38A C46G | 0.08 |
| G27U A41U U43C | 0.07 |
| A26G U38G U43C | 0.03 |
| A26U C31G G35C U38C | 0.09 |

| Variant | self-cleavage |
| --- | --- |
| A26U G27A G30C | 0.9 |
| G27U C31G C37A | 0.07 |
| G27C G30A G44A C45G | 0.09 |
| G27A U28G U38G | 0.05 |
| G27C U38A C46G | 0.56 |
| A26U C31U U38A | 0.22 |
| A26U G33C C37G C45A | 0.02 |
| G27C C37U C42A | 0.06 |
| G27A G35A A39C | 0.02 |
| G27A G29U U32A | 0.12 |
| A26U U34G C37G | 0.03 |
| G27C C42G U43A | 0.11 |
| G27A U28G C46U | 0.83 |
| G27C G33A U38A | 0.11 |
| G27U C31A A41G C42G | 0.16 |
| A26G U34A G44A | 0.23 |
| G27U A39G U43A | 0.04 |
| A26G U43A G44A C46G | 0.01 |
| G27U C31G C37A A39C G44A | 0.03 |
| A26U G29C C37U U43A | 0.18 |
| G27C C31A G40C | 0.02 |
| G27A G36C A39G A41G C45U | 0.02 |
| G27A G29C C31A | 0.52 |
| A26G U34A C45G | 0.1 |

| Variant | self-cleavage |
| --- | --- |
| A26U G29U C42U G44A | 0.71 |
| G27A A41G U43A | 0.07 |
| G27A G33A G35U | 0.07 |
| G27C C37G G44C | 0.04 |
| G27A G30C A41U | 0.15 |
| A26G G33C G40U | 0.07 |
| G27C G29C C46A | 0.54 |
| G27A U34C U38G | 0.01 |
| A26G G35U U43C | 0.05 |
| A26G G35U C46U | 0.06 |
| A26G G35U C46G | 0 |
| G27A C37U G40U | 0.08 |
| G27U C31G U38G A41G | 0.02 |
| A26G G44U C45U | 0.03 |
| A26G G36A G44U | 0.13 |
| G27A G30U C42G | 0.09 |
| G27A U32A U38A | 0.03 |
| G27C U28C G29U G44A | 0.19 |
| G27A C31U G35A | 0.04 |
| A26G U32G U38C | 0.12 |
| G27A G36C C37A | 0.1 |
| A26G U32A A39G | 0.01 |
| A26U U28A C42A | 0.07 |
| G27A C31A G35A G44U | 0.03 |

| Variant | self-cleavage |
| --- | --- |
| G27U C37A U43A | 0.01 |
| A26G U32G C42U | 0.04 |
| G27C G29U U34A | 1.04 |
| A26U C31U C42U | 0.03 |
| A26U C42U U43G | 0.03 |
| A26U G33U C45A | 0.04 |
| G27A G44U C46A | 0.32 |
| A26G G33U U43A | 0.06 |
| G27C A41C C45A | 0.08 |
| A26G G35U C42U | 0.03 |
| G27A C31G C46U | 0.3 |
| G27A C31U U34G C37G C46A | 0.04 |
| A26U G36C C37A | 0 |
| G27C G35U G36A | 0.3 |
| A26U G35A C37G C46U | 0.03 |
| G27A G29A G35U | 0.08 |
| G27C U43A C45A | 0.07 |
| A26G U28C G29A A39G C42U U43A | 0.09 |
| G27A G30A C46A | 1.17 |
| A26G U28C U32A | 0.15 |
| A26U G27C U28C C42A | 0.13 |
| A26U G29U G36U U38G | 0 |
| A26U G27A C46G | 0.07 |
| G27C C31G C37U | 0.03 |

| Variant | self-cleavage |
| --- | --- |
| A26U G40A C46A | 0.09 |
| G27A C42A C46U | 0.16 |
| G27A G36U A41U | 0.07 |
| G27C G29U U34C U43A | 0.04 |
| G27U C31A U34A | 0.03 |
| G27U C37A U38C | 0.04 |
| A26U G35U C45A | 0.13 |
| G27A U28C G35C G40C | 0.09 |
| G27C G29C G35A | 0.13 |
| A26U C31A U43G C46A | 0.06 |
| A26U G30A U34C | 0.08 |
| G27C C37U A39G | 0 |
| G27C C31A A41C | 0.01 |
| G27C C31A G35C A39C A41C | 0.02 |
| G27A G30U U38A G40U U43C | 0.12 |
| G27A G30C U38A | 1.26 |
| G27C G33A G36A C42A | 0.02 |
| A26G G36A A41G | 0.02 |
| A26U U32A G40U A41G U43C | 0.02 |
| G27C U32C G36C | 0.05 |
| G27C C31G G36A C46A | 0.01 |
| G27A U34C G35A | 0.07 |
| G27C C31U G40C | 0 |
| A26U C31A A39C C45G | 0.04 |

| Variant | self-cleavage |
| --- | --- |
| G27C A39U C46U | 0.29 |
| G27C G35A C42U | 0.03 |
| G27A U43A G44A | 0.02 |
| A26U G44U C46A | 0.04 |
| A26U U32A U34G | 0.01 |
| A26U G40C G44U | 0.02 |
| A26U G35U U43A | 0.11 |
| G27U C31U G33U | 0.04 |
| A26U U34A G40U | 0.06 |
| A26U A39C C42U | 0.05 |
| A26U G30A C31G C45A | 0.05 |
| G27C G33U U38G | 0.03 |
| A26U U34A G36A | 0.04 |
| A26G U28C A41U C46A | 0.2 |
| A26U A41C U43G | 0.03 |
| A26G U32C C37U | 0.02 |
| G27C U28C G33U C46U | 0.41 |
| G27A G30U G36C C37U | 0.03 |
| G27C U43G C45G | 0.3 |
| G27A A39U C45G | 0.08 |
| G27C G29U G30U C31U | 1.51 |
| G27A C37U G44C | 0.06 |
| A26U C31A C37A | 0.02 |
